From the supplement of paper PMC4604168 (melanoma cell lines)
This is one part of the list. Repeats are few or missing, and single values can be far off.

tested on: MEL-HO; assay: cell count relative to DMSO control; melanoma cells; higher = more viable cells; conditions: library dose: standard library concentration; 72 h
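Also: cells treated in 1,536-well plates, then fixed and DAPI-stained, with nuclei counted from automated high-throughput microscope images.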

| SMILES | cell count [%] |
| --- | --- |
| NC1(c2ccc(-c3nc4ccn5c(=O)[nH]nc5c4cc3-c3ccccc3)cc2)CCC1 + O=C(O)C(=O)Nc1sc2c(c1C(=O)O)CCNC2 [TCS401] (first compound 2 µM, partner dose 8.33333 µM) | 79.5 |
| NC1(c2ccc(-c3nc4ccn5c(=O)[nH]nc5c4cc3-c3ccccc3)cc2)CCC1 + O=C(Nc1cccc(Cl)c1)Nc1ncc(CCNc2ncnc3ccsc23)s1 [SNS314] (first compound 2 µM, partner dose 0.004 µM) | 65.2 |
| CCCS(=O)(=O)Nc1ccc(F)c(C(=O)c2c[nH]c3ncc(Cl)cc23)c1F + CC(=O)c1c(C)c2cnc(Nc3ccc(N4CCNCC4)cn3)nc2n(C2CCCC2)c1=O [palbociclib] (first compound 0.4 µM, partner dose 0.2 µM) | 69.7 |
| CS(=O)(=O)c1ccc(C(=O)Nc2ccc(Cl)c(-c3ccccn3)c2)c(Cl)c1 [vismodegib] + Cc1cc(N2CCOCC2)cc2[nH]c(-c3c(NC[C@@H](O)c4cccc(Cl)c4)cc[nH]c3=O)nc12 [BMS536924] (first compound 5 µM, partner dose 1 µM) | 86.6 |
| CCCS(=O)(=O)Nc1ccc(F)c(C(=O)c2c[nH]c3ncc(Cl)cc23)c1F + CCCCCCCCCCCC1=C(O)C(=O)C=C(O)C1=O [Embelin] (first compound 0.4 µM, partner dose 6 µM) | 82.9 |
| NC1(c2ccc(-c3nc4ccn5c(=O)[nH]nc5c4cc3-c3ccccc3)cc2)CCC1 + CC(C)(C)c1cnc(CSc2cnc(NC(=O)C3CCNCC3)s2)o1 [SNS-032] (first compound 2 µM, partner dose 0.05 µM) | 79.7 |
| C=C(c1ccc(C(=O)O)cc1)c1cc2c(cc1C)C(C)(C)CCC2(C)C [Bexarotene] + CC(=O)c1c(C)c2cnc(Nc3ccc(N4CCNCC4)cn3)nc2n(C2CCCC2)c1=O [palbociclib] (first compound 10 µM, partner dose 0.2 µM) | 70.6 |
| CN(c1ncccc1CNc1nc(Nc2ccc3c(c2)CC(=O)N3)ncc1C(F)(F)F)S(C)(=O)=O + O=C(Nc1ccccc1)c1cc([N+](=O)[O-])ccc1Cl [GW9662] (first compound 0.4 µM, partner dose 10 µM) | 89.7 |
| CCCS(=O)(=O)Nc1ccc(F)c(C(=O)c2c[nH]c3ncc(Cl)cc23)c1F + Cc1nc(Nc2ncc(C(=O)Nc3c(C)cccc3Cl)s2)cc(N2CCN(CCO)CC2)n1 [dasatanib] (first compound 0.4 µM, partner dose 0.02 µM) | 76 |
| CCCS(=O)(=O)Nc1ccc(F)c(C(=O)c2c[nH]c3ncc(Cl)cc23)c1F + C#Cc1cccc(Nc2ncnc3cc(OCCOC)c(OCCOC)cc23)c1 [erlotinib] (first compound 0.4 µM, partner dose 4 µM) | 77.8 |
| C=C(c1ccc(C(=O)O)cc1)c1cc2c(cc1C)C(C)(C)CCC2(C)C [Bexarotene] + Nc1nc(F)nc2c1ncn2[C@@H]1O[C@H](CO)[C@@H](O)[C@@H]1O [fludarabine] (first compound 10 µM, partner dose 1 µM) | 66 |
| CCCS(=O)(=O)Nc1ccc(F)c(C(=O)c2c[nH]c3ncc(Cl)cc23)c1F + O=C1NC(=O)/C(=C/c2ccc(-c3ccc(F)cc3O)o2)S1 [AS252424] (first compound 0.4 µM, partner dose 5 µM) | 73.5 |
| NC1(c2ccc(-c3nc4ccn5c(=O)[nH]nc5c4cc3-c3ccccc3)cc2)CCC1 + Oc1nc(-c2ccc(C(F)(F)F)cc2)nc2c1CSCC2 [XAV939] (first compound 2 µM, partner dose 10 µM) | 92.6 |
| CS(=O)(=O)c1ccc(C(=O)Nc2ccc(Cl)c(-c3ccccn3)c2)c(Cl)c1 [vismodegib] + O=C(O)C(=O)Nc1sc2c(c1C(=O)O)CCNC2 [TCS401] (first compound 5 µM, partner dose 8.33333 µM) | 90.6 |
| CS(=O)(=O)c1ccc(C(=O)Nc2ccc(Cl)c(-c3ccccn3)c2)c(Cl)c1 [vismodegib] + Cn1c(Nc2ccc(C(F)(F)F)cc2)nc2cc(Oc3ccnc(-c4ncc(C(F)(F)F)[nH]4)c3)ccc21 [CHIR265] (first compound 5 µM, partner dose 0.4 µM) | 73.4 |
| CN(c1ncccc1CNc1nc(Nc2ccc3c(c2)CC(=O)N3)ncc1C(F)(F)F)S(C)(=O)=O + COc1cc2ncnc(Nc3ccc(Oc4ccccc4)cc3)c2cc1OC [SrcI1] (first compound 0.4 µM, partner dose 10 µM) | 82.2 |
| NC1(c2ccc(-c3nc4ccn5c(=O)[nH]nc5c4cc3-c3ccccc3)cc2)CCC1 + Oc1cc(-c2nc(-c3ccccc3)[nH]c2-c2ccncc2)ccc1Cl [L779450] (first compound 2 µM, partner dose 1 µM) | 76.1 |
| CS(=O)(=O)c1ccc(C(=O)Nc2ccc(Cl)c(-c3ccccn3)c2)c(Cl)c1 [vismodegib] + C[C@]1(c2nc3c(C(N)=O)cccc3[nH]2)CCCN1 [Veliparib] (first compound 5 µM, partner dose 7 µM) | 112 |
